# Measurements as given in PubChem BioAssay AID493005 (National Center for Advancing Translational Sciences (NCATS), 2010).
# Fewer than 10 of roughly 340,000 compounds were called active. The shares of active, inactive and inconclusive entries below differ from those in the screen. Calls follow the shape of the dose curve; as a rule, active = well fitted inhibition curve with a large enough effect in the main read-out, with a control signal flat (not every such curve was filed as active); inconclusive = small, poorly fitted or top-dose-only effect, or effect the other way, or a change in a side signal; inactive = no such curve, though single readings can be large or run the other way. Potencies of inconclusive entries are doubtful fits and often do not repeat. “Side channel” marks fits to a control or component signal instead of the main read-out.
# Target: Tumor susceptibility gene 101 protein (Homo sapiens) (UniProt Q99816)
# Experiment: qHTS Assay for Iinhibitors of HIV-1 Budding by Blocking the Interaction of PTAP/TSG101
# Conditions: Fluorescence polarization, FITC-PTAP peptide / Tsg101 binding; series mostly up to 115 µM
# Outline: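 Fluorescence anisotropy tracks displacement of a FITC-tagged PTAP peptide (50 nM) from the Tsg101 binding domain (10 uM), following a 20 min room-temperature incubation at pH 7.5.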
# Potency is read from the fitted curve at half-maximal effect; tags tell the direction and shape of the fitted curve or compound fluorescence and quenching.
# Chain of UniProt Q99816 (Q99816 whole entry, looked up): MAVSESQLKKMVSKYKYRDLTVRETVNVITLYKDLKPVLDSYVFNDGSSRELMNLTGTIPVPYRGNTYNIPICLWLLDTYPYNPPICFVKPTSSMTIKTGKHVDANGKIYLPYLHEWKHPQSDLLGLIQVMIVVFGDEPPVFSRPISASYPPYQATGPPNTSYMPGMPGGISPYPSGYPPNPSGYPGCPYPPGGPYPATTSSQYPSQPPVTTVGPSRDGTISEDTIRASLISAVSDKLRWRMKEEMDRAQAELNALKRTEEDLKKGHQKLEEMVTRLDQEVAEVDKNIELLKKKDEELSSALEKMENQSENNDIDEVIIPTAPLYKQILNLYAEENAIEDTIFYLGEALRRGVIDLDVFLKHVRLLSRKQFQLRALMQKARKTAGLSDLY
row,Compound,Potency
1,C=CCOc1ccc(C(c2c(C(=O)O)[nH]c3ccccc23)c2c(C(=O)O)[nH]c3ccccc23)cc1,inactive
2,Cc1ccc(O)c(C(=O)c2cc(C#N)c(=O)n(-c3nccs3)c2)c1,"inconclusive: 50.1 µM [fluorescent, side channel, partial curve, poor fit]"
3,CC(C)C[C@H](NC(=O)c1[nH]cnc1C(=O)Nc1ccc(CNC(=O)OC(C)(C)C)cc1)C(=O)OC(C)(C)C,"inconclusive: 28.2 µM [quencher, side channel, partial curve, poor fit]"
4,CC(C)c1ccc(N(CC(=O)NCCCN2CCOCC2)S(=O)(=O)c2ccccc2)cc1,inactive
5,O=C(Cn1ncc2c3ccccc3n(Cc3cccc(Cl)c3)c2c1=O)NCC1CCCO1 (stereo unspecified),"inconclusive: 50.1 µM [fluorescent, side channel, partial curve, poor fit]"
6,Cc1ccc(N=Cc2c(O)n(-c3nccs3)c(=O)c3ccccc23)c(C)c1,"inconclusive: 56.2 µM [fluorescent, side channel, partial curve, poor fit]"
7,Nc1ccc2nc(-c3ccccc3)c(-c3ccccc3)nc2c1,"inconclusive: 56.2 µM [fluorescent, side channel, partial curve, poor fit]"
8,CCN(CC)c1ccc(/C=C(/C#N)c2nc3ccc(C)cc3[nH]2)c(OC(C)C)c1,"inconclusive: 39.8 µM [fluorescent, side channel, partial curve, poor fit]"
9,COC(=O)c1cc2c(N)c(C(=O)c3ccc(Cl)cc3)sc2nc1C(OC)OC,"inconclusive: 89.1 µM [falling, single point]"
10,COCCn1nnnc1C(c1ccc(OC)c(OC)c1)N1CCN(c2nc3ccccc3s2)CC1 (stereo unspecified),inactive
11,CC1=CC(=C(C#N)c2nc3ccccc3s2)C=C(C)N1c1ccc(F)cc1,"inconclusive: 79.4 µM [fluorescent, side channel, partial curve, poor fit]"
12,CN/N=C(\Cc1nc2ccccc2[nH]1)c1ccc([N+](=O)[O-])cc1,inactive
13,COc1cc(NS(=O)(=O)c2ccc3c(c2)oc(=O)n3C)cc(OC)c1OC,inactive
14,N#CCC(=O)N/N=C\c1cc(Br)ccc1OC/C=C/c1ccccc1,inactive
15,O=C(Nc1ccc2ncccc2c1)c1ccccc1Br,inactive
16,N#Cc1cc(C(=O)c2ccccc2O)cn(-c2nccs2)c1=O,"inconclusive: 56.2 µM [fluorescent, side channel, partial curve, poor fit]"
17,CC(C)C(C(=O)O)N1C(=O)/C(=C/c2cccn2C)SC1=S (stereo unspecified),"inconclusive: 44.7 µM [fluorescent, side channel, partial curve, poor fit]"
18,CN(C)c1ccc(/C=N/N(CCO)C2=NS(=O)(=O)c3ccccc32)cc1,"inconclusive: 79.4 µM [fluorescent, side channel, partial curve]"
19,Cc1ccc(C(=O)NC(=S)Nc2c(C)ccc3nsnc23)cc1,inactive
20,CCN1C(=O)/C(=C/C=C2/CCCN2C)OC1=S,"inconclusive: 56.2 µM [fluorescent, side channel, partial curve, poor fit]"
21,Cc1ccsc1C1NC(=O)c2c(sc3c2CCN(C)C3)N1 (stereo unspecified),"inconclusive: 79.4 µM [fluorescent, side channel, partial curve, poor fit]"

row,Compound,Potency
1,CSc1nc(-c2cccs2)c(C#N)c(=O)[nH]1,"inconclusive: 44.7 µM [falling, partial curve]"
2,Cc1ccccc1NS(=O)(=O)c1cccc(C(=O)Nc2cccc(C(=O)O)c2)c1,inactive
3,CN(Cc1ccccc1F)C(=O)c1cccc(NC(=O)CC2SC(N3CCCCC3)=NC2=O)c1 (stereo unspecified),inactive
4,O=C(NC1CCCCC1)c1cccc2c1C(=O)c1ccc(N3CCC(Cc4ccccc4)CC3)cc1S2(=O)=O,"inconclusive: 50.1 µM [fluorescent, side channel, partial curve, poor fit]"
5,COc1ccc(NC(=O)c2sc3nc(-c4cccnc4)ccc3c2N)cc1,"inconclusive: 89.1 µM [fluorescent, side channel, single point]"
6,O=C(CCN1C(=O)/C(=C/c2ccco2)SC1=S)Nc1ccc(O)cc1C(=O)O,"inconclusive: 79.4 µM [fluorescent, side channel, partial curve, poor fit]"
7,COc1ccc(/C(O)=C/c2nc3ccccc3n(-c3ccccc3)c2=O)cc1,"inconclusive: 50.1 µM [fluorescent, side channel, partial curve, poor fit]"
8,COc1cc(/C=C2\SC(=Nc3ccc(Cl)c(C(=O)O)c3)NC2=O)c(Br)c(Br)c1O,"inconclusive: 56.2 µM [fluorescent, side channel, partial curve, poor fit]"
9,Cc1ccc2nc(N3C(=O)C(O)=C(C(=O)c4ccc(C)o4)C3c3ccco3)sc2c1 (stereo unspecified),inactive
10,O=C1c2cccc3c([N+](=O)[O-])ccc(c23)C(=O)N1c1ccc(Cl)cn1,"inconclusive: 25.1 µM [falling, full curve]"
11,O=c1oc2ccccc2cc1-c1nc(-c2cccs2)cs1,"inconclusive: 31.6 µM [fluorescent, side channel, single point]"
12,O=C(c1ccccc1)[C@@H]1[C@@H]2C(=O)N(c3ccc(F)cc3)C(=O)[C@@H]2C2CCCN21 (stereo partly specified),"inconclusive: 79.4 µM [falling, partial curve, poor fit]"
13,CC(Nc1ccc(Br)cn1)c1cc(Cl)ccc1O (stereo unspecified),inactive
14,COC(=O)CCSc1cc([N+](=O)[O-])cc2c1c(C1OCCS1)nn2-c1ccccc1 (stereo unspecified),"inconclusive: 56.2 µM [fluorescent, side channel, partial curve, poor fit]"
15,CC1CCN(Cc2c(O)ccc3c2O/C(=C\c2ccco2)C3=O)CC1,"inconclusive: 50.1 µM [fluorescent, side channel, partial curve, poor fit]"
16,C=CCn1c(=O)/c(=C/c2ccsc2)s/c1=C(\C#N)C(=O)NCCN1CCOCC1,"inconclusive: 89.1 µM [fluorescent, side channel, single point]"
17,CCOc1ccc(C(=O)N2CCN(CCc3ccccc3)CC2)cc1OCC,inactive
18,O=C1/C(=C/c2cccc(F)c2)Oc2cc(O)ccc21,"inconclusive: 50.1 µM [fluorescent, side channel, partial curve, poor fit]"
19,Cc1cccc2cncc(OCc3nnc(SC(F)F)n3C)c12,inactive
20,Nc1cccc2c(O)cc(S(=O)(=O)O)cc12,"inconclusive: 50.1 µM [fluorescent, partial curve, poor fit]"
21,CC(=O)OCC(=O)N1CCN(c2ccc([N+](=O)[O-])cc2)CC1,inactive

row,Compound,Potency
1,COC(=O)C1CCN(Cc2cc(=O)oc3cc(OC)ccc23)CC1,inactive
2,COc1ccc(-c2cn3c(C)c(C(=O)N4CCN(c5ccccc5F)CC4)sc3n2)cc1,inactive
3,O=C(NCC1CCCO1)C(=O)NCC(c1ccco1)N1CCN(c2ccccc2F)CC1 (stereo unspecified),inactive
4,COc1ccccc1-c1ccc(/C=C2\C=CC(=O)O2)o1,"inconclusive: 39.8 µM [fluorescent, side channel, partial curve, poor fit]"
5,O=C(Nc1nc2c(s1)CN(Cc1ccccc1)CC2)c1cccc(S(=O)(=O)N2CCc3ccccc32)c1,"inconclusive: 79.4 µM [fluorescent, side channel, partial curve, poor fit]"
6,O=C(Cc1nc2ccccc2[nH]c1=O)c1ccccc1,"inconclusive: 50.1 µM [fluorescent, partial curve, poor fit]"
7,COc1ccccc1/C=C1/SC(=S)N(CCC(=O)Nc2cccnc2)C1=O,"inconclusive: 89.1 µM [fluorescent, side channel, single point]"
8,O=C1S/C(=C/c2ccc(N3CCOCC3)o2)C(=O)N1Cc1ccc(F)cc1,"inconclusive: 6.31 µM [fluorescent, side channel, full curve, poor fit]"
9,CC1Cc2ccccc2N1S(=O)(=O)c1cccs1 (stereo unspecified),"inconclusive: 79.4 µM [fluorescent, partial curve, poor fit]"
10,Cc1ccc2nc(/C(C#N)=C\c3ccc(N4CCOCC4)o3)[nH]c2c1,"inconclusive: 31.6 µM [fluorescent, side channel, partial curve]"
11,COCCCNC(=O)C(C#N)c1nc2ccccc2nc1N1CCCC1 (stereo unspecified),"inconclusive: 50.1 µM [fluorescent, side channel, partial curve, poor fit]"
12,COc1ccc(-c2nnc(SCC(=O)NCc3ccco3)o2)cc1,inactive
13,Cn1c(-c2ccc(Br)cc2)cnc1NCc1cccnc1,inactive
14,O=C(N/N=C/c1ccc(-c2cccc(C(F)(F)F)c2)o1)c1ccccc1Br,"inconclusive: 89.1 µM [fluorescent, single point]"
15,CCCC(=O)c1ccc(N2CCC(C)CC2)c(F)c1,inactive
16,COc1cc2c3nnc(-c4ccc(F)cc4)c-3cn(Cc3ccccc3)c2cc1OC,"inconclusive: 79.4 µM [fluorescent, side channel, partial curve, poor fit]"
17,COc1ccccc1C(=O)NCCNc1nc2cc(C)cc(C)c2cc1C#N,inactive
18,COc1ccc(NC(=O)CCCNC(=O)Cn2cnc3sc(C)c(C)c3c2=O)cc1OC,inactive
19,Cn1cc(/C=C2\SC(=S)N(NC(=O)c3cccc(Cl)c3)C2=O)c2ccccc21,"inconclusive: 56.2 µM [fluorescent, side channel, partial curve, poor fit]"
